# Structures can show the parent of a compound that is named as a salt.
# System: cell line panel including leukemia, ovarian, lung, and breast carcinoma cells
# Assay: cytotoxicity (XTT), cell line panel
# Conditions: discussion statement
smiles,measurement,value
"CC(=O)O[C@H]1C(=O)[C@@]2(C)[C@H]([C@H](OC(=O)c3ccccc3)[C@]3(O)C[C@H](OC(=O)[C@H](Oc4cccc[n+]4C)[C@@H](NC(=O)c4ccccc4)c4ccccc4)C(C)=C1C3(C)C)[C@]1(OC(C)=O)CO[C@@H]1C[C@@H]2O [taxol-2'-MPT, Taxol-2'-MPT (methylpyridinium tosylate)]","cytotoxicity (words, discussion)",lack of cytotoxicity

# Reference: patent publication US6025491A, “Water soluble onium salt of taxo-diterpenoid” (The Scripps Research Institute, priority 1998, dated 2000)
